16 compounds from US6835371B1 (priority 1997, dated 2004) can be followed below.

Assay [1] addresses T1, human serotonin transporter (hSERT) (Homo sapiens, UniProt P31645). Nature of the assay: biochemical.
Assay [2] deals with T1, human serotonin transporter (hSERT). Nature of the assay: cell-based.
The mark [3] stands for this setting: HEK-hSERT cells, read-out: [3H]Serotonin Uptake IC50.
Where [4] appears, read: Table 2, read-out: Reuptake [3H]5-HT (Ki ± SD).

Structures are written as SMILES. Like-named read-outs stand apart in the source and are kept apart here.

As usually defined, the Ki is the dissociation constant of the complex between target and ligand, obtained from inhibition or displacement. What is called IC50 is the concentration at which inhibition is half-maximal.

T1 sequence (P31645 whole entry): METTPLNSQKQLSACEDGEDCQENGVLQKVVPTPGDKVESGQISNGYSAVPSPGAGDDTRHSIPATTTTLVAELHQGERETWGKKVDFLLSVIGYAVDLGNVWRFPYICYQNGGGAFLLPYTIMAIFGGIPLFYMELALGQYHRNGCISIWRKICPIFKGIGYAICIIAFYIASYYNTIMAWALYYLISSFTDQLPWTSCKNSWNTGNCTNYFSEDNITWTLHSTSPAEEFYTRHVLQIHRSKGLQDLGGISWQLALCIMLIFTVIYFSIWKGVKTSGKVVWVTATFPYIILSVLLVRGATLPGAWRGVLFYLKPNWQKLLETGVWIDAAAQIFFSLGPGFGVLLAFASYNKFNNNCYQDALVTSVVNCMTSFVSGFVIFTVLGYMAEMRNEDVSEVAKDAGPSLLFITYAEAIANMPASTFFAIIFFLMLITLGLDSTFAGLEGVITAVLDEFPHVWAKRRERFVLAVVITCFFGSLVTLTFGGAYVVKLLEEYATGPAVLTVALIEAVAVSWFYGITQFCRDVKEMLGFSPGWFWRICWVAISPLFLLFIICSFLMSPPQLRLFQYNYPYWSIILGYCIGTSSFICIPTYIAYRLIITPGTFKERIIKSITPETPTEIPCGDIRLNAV

For `O=C1c2ccccc2C(=O)N1CCCCN1CCC(O)(c2ccc(Br)cc2)CC1` [Compound 31627], the Ki in assay [1] was found to be 1.59 µM. Besides, the IC50 in assay [2] (setting [3]) is 0.361 µM.
`Fc1ccc(C(OCCCCN2CCN(c3ccccc3)CC2)c2ccc(F)cc2)cc1` [Compound 31653] registered a 50% inhibitory concentration (IC50) in assay [2] of 1.02 µM.
`O=c1[nH]c2ccccc2n1C1CCN(CCCCOC(c2ccc(F)cc2)c2ccc(F)cc2)CC1` [Compound 31649]: the IC50 in assay [2] (setting [3]) was determined as 0.57 µM.
On to `OC1(c2ccc(Br)cc2)CCN(CCCCOC(c2ccc(F)cc2)c2ccc(F)cc2)CC1` [Compound 31530], for which the IC50 in assay [2] (setting [3]) came to 3.07 µM. In addition, the inhibition constant (Ki) in assay [2] (setting [4]) worked out at 3.07 ± 0.83 µM.
As for `CC(=O)C1(c2ccccc2)CCN(CCCCOC(c2ccc(F)cc2)c2ccc(F)cc2)CC1` [Compound 31525], the Ki was 0.126 µM in assay [1] and more than 10 µM in assay [2] (Table 2, bound given in μM, read-out: Reuptake [3H]5-HT (Ki ± SD)). Further, the IC50 in assay [2] (HEK-hSERT cells, in μM, read-out: [3H]Serotonin Uptake IC50) is more than 10 µM.
Consider `Fc1ccc(C(OCCCCN2CCN(c3cccc(C(F)(F)F)c3)CC2)c2ccc(F)cc2)cc1` [Compound 31532], for which, in assay [2], 3.3 µM corresponded to half-maximal inhibition (IC50) and the Ki is 3.3 ± 1.3 µM. In assay [2] (read-out: [3H]Serotonin Uptake IC50, HEK-hSERT cells), the IC50 was found to be 3.3 µM.
In assay [2], `Fc1ccc(C(OCCCCN2CCN(c3ccc(F)cc3)CC2)c2ccc(F)cc2)cc1` [Compound 31527] registered an IC50 of 0.44 µM and a Ki of 0.44 ± 0.05 µM.
Consider `O=C1CN(CCCCOC(c2ccc(F)cc2)c2ccc(F)cc2)CCN1` [Compound 31524], for which, in assay [2] (setting [3]), the IC50 was determined as 5.34 µM.
On to `Fc1ccc(C(OCCCCN2CCN(c3ccccc3F)CC2)c2ccc(F)cc2)cc1` [Compound 31526], for which, in assay [2], the IC50 was determined as 0.192 µM and the affinity, expressed as Ki, was 0.192 ± 0.021 µM.
`NC(=O)C1CCCN(CCCCOC(c2ccc(F)cc2)c2ccc(F)cc2)C1` (stereo not drawn) [Compound 31628]: the 50% inhibitory concentration (IC50) in assay [2] (setting [3]) was found to be 0.203 µM.
In assay [2], `Fc1ccc(C(OCCCCN2CCN(c3ccc(Cl)cc3)CC2)c2ccc(F)cc2)cc1` [Compound 31652] showed a concentration for half-maximal inhibition (IC50) of 0.32 µM.
`Fc1ccc(C(OCCCCN2CCNC(c3ccccc3)C2)c2ccc(F)cc2)cc1` (stereo not drawn) [Compound 31533] had a Ki in assay [2] of 0.7 ± 0.26 µM.
Take `OC1CCN(CCCCOC(c2ccc(F)cc2)c2ccc(F)cc2)CC1` [Compound 31648]: in assay [2] (setting [3]), the IC50 was 0.314 µM.
`Fc1ccc(C(OCCCCN2CCN(c3ccccc3Cl)CC2)c2ccc(F)cc2)cc1` [Compound 31626]: the IC50 in assay [2] (setting [3]) was determined as 0.119 µM.
Consider `OC1(c2ccccc2)CCN(CCCCOC(c2ccc(F)cc2)c2ccc(F)cc2)CC1` [Compound 31531], for which the Ki in assay [2] (setting [4]) is 0.136 ± 0.041 µM.
Compound `OC1(c2ccc(Cl)cc2)CCN(CCCCOC(c2ccc(F)cc2)c2ccc(F)cc2)CC1` [Compound 31625] returned a Ki in assay [1] of more than 10 µM.
